# Data published in article PMC12136788.
# The other results are listed elsewhere or left out.
# T1: UNK ZnF1-6 (called full-length) (human, UniProt Q9C0B0 30-357)
# T1 sequence: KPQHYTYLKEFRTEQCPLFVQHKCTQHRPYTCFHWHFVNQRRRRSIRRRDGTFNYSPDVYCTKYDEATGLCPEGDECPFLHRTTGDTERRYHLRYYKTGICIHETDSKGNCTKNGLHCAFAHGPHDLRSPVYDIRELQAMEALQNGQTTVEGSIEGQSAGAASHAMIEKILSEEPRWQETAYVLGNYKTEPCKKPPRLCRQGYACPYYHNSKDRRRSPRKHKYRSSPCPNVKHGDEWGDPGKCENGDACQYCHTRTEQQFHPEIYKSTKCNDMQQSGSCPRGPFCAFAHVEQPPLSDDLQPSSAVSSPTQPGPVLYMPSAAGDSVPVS
# B1: ENSG00000124766:be:win_101|CDS|ENSG00000124766|bound_else_gene|NA|bound_elsewhere_windowed (ssRNA)
# RNA: GGGAGUUCUACAGUCCGACGAUCCCACGCCCGGCUCCACCGCCUCCACGGGCGGCAAGGCCGACGACCCGAGCUGGUGCAAGACCCCGAGUGGGCACAUCAAGCGACCCAUGAACGCCUUCAUGGUGUGGUCGCAGAUCGAGCCAACAGAGGAUUGAGCAUCA
# B2: ENSG00000136451:be:win_2951|3pUTR|ENSG00000136451|bound_else_gene|NA|bound_elsewhere_windowed (ssRNA)
# RNA: GGGAGUUCUACAGUCCGACGAUCAAAAUUAACUAAACCAAGAUGCUGUGAUUUUUUAAGUUGCAAUAUGUUUUUGGUUUUUUUCAUUUUUUAAUCAUUGCAGUUAAGAGAAAUGGAAAUUAGUUGUGUUAAUCUUGCAGAAUGCAACAGAGGAUUGAGCAUCA
# B3: chrX:142202868:142203987:-|CDS|ENSG00000046774|control|control|control (ssRNA)
# RNA: GGGAGUUCUACAGUCCGACGAUCUCAGAAAGCAUCAAGAAGAAAGUACUAGAGUUUUUAGCCAAGCUGAACAACACUGUUCCUAGUUCCUUUCCAUCCUGGUACAAGGAUGCUUUGAAAGAUGUGGAAGAGAGAGUCCAGGCCCAACAGAGGAUUGAGCAUCA
# B4: chr7:6409910:6410025:-|CDS|ENSG00000164535|unk|FALSE|unique (ssRNA)
# RNA: GGGAGUUCUACAGUCCGACGAUCCUCUGCUGCUCACUAUAGCGCCAAGUGGUCACACGAAGCGGAAUUCAGCAAAAUACUCAUAGGUCCGAAGAUGCUCACCGACCACAUGCCAGACAUCCUGAUGCGGGCCUUGGACAGCGUCAACAGAGGAUUGAGCAUCA
# B5: ENSG00000070961:be:win_6401|3pUTR|ENSG00000070961|bound_else_gene|NA|bound_elsewhere_windowed (ssRNA)
# RNA: GGGAGUUCUACAGUCCGACGAUCCUGGCUUCAUUUCUGUGAAAUUGCUCUUUGAAAAUUUCUUUUUACACGUGUAAGCCAACUGAGAUACCGUGAUGGUGUUGAUUUCUUUCAAUGAUGCUUACCAUCUAUUUUAGCCACUGACAACAGAGGAUUGAGCAUCA
# B6: chr8:63210610:63210711:+|3pUTR|ENSG00000185728|msi1|total|mutant (ssRNA)
# RNA: GGGAGUUCUACAGUCCGACGAUCCAUGAAGUAAAAAUUUAUUACUCCCGGUAUUCACCCGCUAAAUAAACACCGUUCUUGUUCCGCAAGCAUAUGUUGUUCCUCAGCUCUUUUCUCCAGCUUUUGCAGUGUCCUGGCAUCCUUCAACAGAGGAUUGAGCAUCA
# Biological target: T1, UNK ZnF1-6 (called full-length)
# Experiment: nsRBNS (natural sequence RNA bind-n-seq); RBNS binding buffer (assumed for nsRBNS): 25 mM Tris pH 7.5, 150 mM KCl, 3 mM MgCl2, 0.01% Triton X-100, 500 ug/ml BSA, 20 U/ml SUPERase-In, 4 C; UNK is unkempt and MSI1 is Musashi-1; names of the RNAs are library labels; protein concentration not given here; high values mean tight binding
row,Binder,binding signal
1,B1,0.516 enrichment R
2,B2,0.456 enrichment R
3,B3,0.438 enrichment R
4,B4,0.866 enrichment R
5,B5,0.517 enrichment R
6,B6,1.27 enrichment R
